Laboratory results from paper PMC4336329 (PLoS ONE, 2015).
The campaign covered roughly 310,000 compounds. About 14,000 (4.5%) showed an effect of 50% or more. The effect is printed as a negative number. Some of the results follow.

target: human ether-à-go-go-related gene (hERG) potassium channel (human, UniProt Q12809); assay: primary screen, population patch clamp on CHO cells stably expressing hERG
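Note: peak tail current of the secondary pulse compared with the same well before compound.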

Chain of human ether-à-go-go-related gene (hERG) potassium channel (Q12809 whole entry, looked up): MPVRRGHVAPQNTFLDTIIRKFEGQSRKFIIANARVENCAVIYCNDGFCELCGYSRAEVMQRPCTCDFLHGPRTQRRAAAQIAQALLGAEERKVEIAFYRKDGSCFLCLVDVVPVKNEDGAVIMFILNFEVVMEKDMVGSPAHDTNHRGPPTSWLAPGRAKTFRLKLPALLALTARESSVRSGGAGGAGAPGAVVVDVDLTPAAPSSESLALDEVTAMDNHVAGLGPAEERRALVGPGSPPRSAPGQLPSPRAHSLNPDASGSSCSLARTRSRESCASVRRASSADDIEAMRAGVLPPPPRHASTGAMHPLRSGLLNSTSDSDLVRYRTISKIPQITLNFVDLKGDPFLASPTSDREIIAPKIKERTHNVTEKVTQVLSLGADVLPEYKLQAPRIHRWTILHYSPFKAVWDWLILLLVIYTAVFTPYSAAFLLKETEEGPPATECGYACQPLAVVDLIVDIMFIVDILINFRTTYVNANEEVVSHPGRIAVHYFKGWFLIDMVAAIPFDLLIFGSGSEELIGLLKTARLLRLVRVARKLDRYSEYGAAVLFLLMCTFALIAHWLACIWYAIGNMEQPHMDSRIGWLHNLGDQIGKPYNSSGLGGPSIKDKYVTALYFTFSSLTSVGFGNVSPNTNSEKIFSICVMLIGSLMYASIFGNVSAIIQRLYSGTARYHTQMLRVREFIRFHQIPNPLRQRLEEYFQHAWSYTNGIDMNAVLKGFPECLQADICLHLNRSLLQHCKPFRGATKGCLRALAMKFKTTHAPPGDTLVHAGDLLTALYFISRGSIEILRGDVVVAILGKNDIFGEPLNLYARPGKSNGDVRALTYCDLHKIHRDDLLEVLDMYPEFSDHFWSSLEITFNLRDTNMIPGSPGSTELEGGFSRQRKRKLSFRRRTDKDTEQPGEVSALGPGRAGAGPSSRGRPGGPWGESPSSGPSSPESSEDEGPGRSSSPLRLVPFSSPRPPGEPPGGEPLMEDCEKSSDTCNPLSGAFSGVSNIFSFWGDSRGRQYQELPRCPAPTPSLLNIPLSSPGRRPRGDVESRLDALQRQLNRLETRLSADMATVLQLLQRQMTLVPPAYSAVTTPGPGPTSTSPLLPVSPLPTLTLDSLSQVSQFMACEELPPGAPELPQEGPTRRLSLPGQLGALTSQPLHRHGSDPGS

Compound | hERG current change (%, negative = inhibition) at 10uM
NC(=S)NN=C(Cc1ccccc1)Cc1ccccc1 | 3.69%
COc1cccc(/C=C2/C(=O)NN(c3ccc(C)c(C)c3)C2=O)c1 | -3.01%
Cc1cccc(CCNC(=O)C2CCC(=O)N2Cc2ccc(F)cc2)c1 (stereo not shown) | -6.99%
Cc1nnsc1C(=O)Nc1ccccc1Cl | -3.48%
NS(=O)(=O)c1ccc(NC(=O)CSC2CCCCC2)cc1 | 3.4%
O=C(COC(=O)CNC(=O)c1ccco1)NCCN1C(=O)CSC1=O | 2.59%
CCCS(=O)(=O)N1CCN(c2cc3c(cc2[N+](=O)[O-])n(C)c(=O)n3C)CC1 | -11.1%
COc1ccc2cc(C(=O)OC(C)C)sc(=O)c2c1OC | 2.45%
CCOC(=O)N1CCN(C(=O)c2cc(COc3ccc(OC)cc3Cl)on2)CC1 | -15.5%
Cc1cc(C)cc(NC(=O)CS(=O)(=O)c2ccccc2)c1 | 1.03%
COc1ccc(NC(=O)CN2C(=O)CSC(C)C2=O)cc1 (stereo not shown) | 5.78%
COc1ccc(NCc2cc3cc(OC)ccc3[nH]c2=O)cc1 | -16.2%
O=C(NNC(=O)c1cccc(Br)c1)C(=O)N1CCCCC1 | -0.807%
CC(=O)NC1=NN(C(C)=O)C(c2sccc2C)S1 (stereo not shown) | 15.7%
Cc1oc2ccc(OCc3ccc(F)cc3Cl)cc2c1C(=O)O | 12.1%
COc1cccc(C(=O)OC(C)CN2CCCC2)c1.Cl (stereo not shown) | 1.11%
CCOC(=O)[C@@H]1[C@H]2COc3ccccc3[C@H]2N2C(=O)N(c3cccc(F)c3)C(=O)[C@]12C | -12.5%
Cc1ccc(Nc2nc3ccccc3s2)cc1 | -6.1%
Cc1cccc(NC(=O)c2c(C)nc3ccccn23)c1 | -0.935%
O[C@@H]1C2CCCC1[C@]1(O)CCCCC1C2 (stereo partly shown) | 8.35%
COc1ccc(S(=O)(=O)N2CCCCCC2)cc1NC(=O)Cc1ccccc1 | -35.7%
Cc1cc(=O)[nH]c(SCc2cccc(Br)c2)n1 | 8.5%
COc1ccc(Cl)cc1CN1CCOCC1.Cl | 24.5%

Compound | hERG current change (%, negative = inhibition) at 10uM
CCCCN(c1ccccc1)c1ncnc(N)c1[N+](=O)[O-] | 8.04%
O=C(Nc1ccc(C(=O)N2CCN(c3ccc(F)cc3)CC2)cc1)C1=CSCCO1 | -38.1%
O=S(=O)(/N=C(/Nc1cccc2ccccc12)c1ccccc1)c1ccc(Br)cc1 | 20.3%
CCOC(=O)c1cnn(-c2ccc(C(C)C)cc2)c1NC(=O)C1CCC1 | 10.6%
CC1(C)CC2CC(C)(CN2/C=C2/CCCCC2=O)C1 (stereo not shown) | 0.696%
COc1cc(C#Cc2c(-c3ccccc3OC)oc3ccccc23)cc(OC)c1 | 10.7%
CN(C)c1ccc(NC(=O)COC(=O)c2cc(Cl)ccc2[N+](=O)[O-])cc1 | -3.65%
Cc1cc(/C=C(\C#N)C(=O)NCc2ccco2)c(C)[nH]1 | -2.85%
Cn1c(=O)cc(OCC(=O)NCc2cccs2)c2ccccc21 | -10.6%
Cc1cc(C)c(NC(=S)NCC2CCN(C(C)c3ccccc3)C2)c(C)c1 (stereo not shown) | -22.4%
CCSC(=O)NC12CC3CC(CC(C3)C1)C2 | 6.27%
Cc1cc(Cl)ccc1C(=O)C1CCCN(Cc2ccon2)C1 (stereo not shown) | 0.321%
CS(=O)(=O)N(CC(=O)N1CCCC1)c1cccc(F)c1 | 19.7%
O=C(O)c1cc(S(=O)(=O)N(Cc2ccccc2)c2ccc(Cl)cc2)ccc1Cl | 20.8%
COc1ccc(C2C(=O)c3ccccc3C2=O)cc1OC | 7.85%
CC(/C=N/NC(=O)Cn1nnc(N)n1)=C\c1ccc(C(C)C)cc1 | 7.36%
CNC(=S)NNc1nc(N2CCOCC2)nc(N2CCOCC2)n1 | 14.9%
COc1ccc(NC(=O)CN2C(=O)C(C)Oc3ccc(C)cc32)cc1 (stereo not shown) | 3.11%
O=C(Nc1ccccc1Cl)O/N=C(/c1ccccc1)c1ccccn1 | 6.47%
CC(C)=NNC1=NC(C)(C)Cc2ccccc21 | 13.4%
N/C(=C/C(=O)c1ccccc1O)C(F)(F)F | -0.151%
O=S1(=O)N=C(N2CCN(Cc3ccccc3)CC2)c2ccccc21 | -27.3%
O=C(CSc1nn(-c2ccc(F)cc2)c(=S)s1)N1CCN(C(=O)c2ccco2)CC1 | -75%
